From US12220421B2, “Inhibitors of C. difficile spore germination” (THE BOARDS OF REGENTS OF THE NEVADA SYSTEM OF HIGHER …, priority 2021, dated 2025)

Tested on: C. difficile hypervirulent strain R20291
Details: for Murine CDI prophylaxis at 50 mg/kg: 50 mg/kg daily oral gavage, 3 days, mice challenged with R20291 spores; for CDI signs in mice: hypervirulent C. difficile strain R20291
Text: To test for murine C. difficile infection (CDI) protection, published procedures were followed (Howerton et al. (2013) Journal of Infectious Diseases 207(10): 1498-1504; Phan et al. (2022) Antimicrobial Agents and Chemotherapy 66(1): e01435-01421). Briefly, antibiotic-treated female mice were challenged by oral gavage with spores from C. difficile hypervirulent strain R20291 (Chen et al. (2008) Gastroenterology 135(6): 1984-1992). At this point, animals were divided randomly into groups (Table 1). Starting on the day of infection and continuing for the next two days, animals in group C were given daily doses of 50 mg/kg of an individual NHBS analog by oral gavage. Animals in group B were given vancomycin. Animals in group A were given excipient (Howerton et al. (2013) Journal of Infectious Diseases 207(10): 1498-1504; Howerton et al. (2018) Antimicrobial Agents and Chemotherapy 62(10): e02251-17). For up to 5 days following challenge, animals were scored for signs of CDI, using a published rubric (Howerton et al. (2013) Journal of Infectious Diseases 207(10): 1498-1504). Moribund or severely distressed animals were euthanized.

SMILES	Murine CDI prophylaxis at 50 mg/kg	CDI signs in mice
C[C@H](CCc1ncc2ccccc2n1)[C@H]1CC[C@H]2[C@@H]3[C@H](O)C[C@@H]4C[C@H](O)CC[C@]4(C)[C@H]3C[C@H](O)[C@]12C [Compound 29]	Complete protection	prevented all CDI signs
C[C@H](CCc1nc2ccccc2s1)[C@H]1CC[C@H]2[C@@H]3[C@H](O)C[C@@H]4C[C@H](O)CC[C@]4(C)[C@H]3C[C@H](O)[C@]12C [Compound 48]	Partial protection	significantly reduced sign severity
